Measured values reported in the RNAGym collection of RNA variant scans (doi:10.7554/elife.90254).
The source gives no read counts; variants with many changes may rest on few reads.

B1: LINE1-mini (parent)
chain: GGCAGAGCUCAACACAGCGUGGCAAAGUGGCUGUGGCUAGACUGCC

Variants of: B1
Assay: self-cleavage, relative activity (ratio to wild type); higher = more cleavage; in vitro, sequencing; the parent is a self-cleaving ribozyme

Row | Variant | self-cleavage
1 | A16U G17C C18A | 0.07
2 | G5C C8U G22U G30C | 0.06
3 | A12C G40A C46G | 0.03
4 | G1A A4U C23A | 0.49
5 | G5A G17U G19U G40U | 0.04
6 | G5C C10A C18G A26G | 0.02
7 | G5C G17C G21U G30A C31G C37A A41C | 0.02
8 | G1C C3A G27U U38A | 0.04
9 | U9G C15A A26U A41G | 0.14
10 | G5C G7C U43A | 0.68
11 | G7U G33A G36A A39U | 0.05
12 | C8A G17U C31A G40U | 0.39
13 | G1A A11C G19U C23A G35A | 0.01
14 | C3G A25G G35C | 0.12
15 | G21U A39G C46G | 0.05
16 | C13A C18A U38G | 0.01
17 | C10G A24C U43C | 0.02
18 | C23U G33C U38A | 0.04
19 | A4G A6G C10G A39G | 0.01
20 | G19C G21A G44A C46G | 0.02
21 | C13U A26U G27C | 0.14
22 | U9C C13G G44U | 0
23 | C3U G5U G30C C45G | 0.08
24 | G1U C10U G17C C23U C31U C45U | 0.02

Row | Variant | self-cleavage
25 | C23G G35U C42A | 0.01
26 | G21C C23U C37A U38G | 0.02
27 | A6G U20C G36C | 0.04
28 | G5C G7U U9G U34G | 0.05
29 | G5C A24G G35U | 0.09
30 | C10A A14U G17U C18U G19C G29U U32A | 0.01
31 | G2A C3A G19U | 1.75
32 | G7A A26C G35U | 0.04
33 | C8U C15G A16U G27C | 0.25
34 | G1U G29U U43G | 0.06
35 | G17A G19U U28G G36U C45A | 0.02
36 | C10A A16U G40C | 0.02
37 | A11C C31G G35U U38G | 0.01
38 | G17A G19C U20A G27A G40C | 0.06
39 | A12U U20G C42A | 0.03
40 | A6U G27U G30C | 1.5
41 | C3A C13U G36U A41U | 0.23
42 | G5A A41U G44A C46U | 0.15
43 | G5A U9C A16G C18G C23A C37A | 0.01
44 | C8G A11C U20C | 0.01
45 | C8G A12C C15U | 0.03
46 | G5A G30U G44U | 0.12
47 | A6U U32A C46A | 0.21
48 | A6U A12C G40C A41C | 0.09

Row | Variant | self-cleavage
49 | C13U G29C U34G G35U | 0.04
50 | A4U A26G G27U U28G G30A | 0.16
51 | C8U C15U U20A | 0.96
52 | G1C A12U A41U | 0.01
53 | C3A A4U U9A A12C A41U | 0.02
54 | A6C C13U G27C C31A | 0.02
55 | C23A G27A G33C G40C A41U C42U C46U | 0.04
56 | G5A A12C C42A | 0.01
57 | G22U C23G C37A | 0.04
58 | U9G C15G G21A C23A G35U | 0.02
59 | G7U A11G C13U G22U U28G U34G | 0.01
60 | G17C U28C U34C | 0.02
61 | C15U A25U U32A A39G A41U C46U | 0.07
62 | U9G C37U C42U | 0.05
63 | G2C G7A G21A C37A | 0.23
64 | G19C U20C A39U | 0.69
65 | C18A G19U G21A G33U | 0.01
66 | A16U G19A G21U C31U | 0.07
67 | C15A G33C C42U | 0.02
68 | A4U U9C C23A | 0.1
69 | C3U A14C G30C | 0.13
70 | C23G A24G G27U C37A | 0.04
71 | C3U G5U U9A | 0.16
72 | C8U C10A C15U C18G G29U C31U | 0.01

Row | Variant | self-cleavage
73 | G19A G27A U28G | 0.58
74 | G7U C13U U32G C46G | 0.04
75 | C3A A14C G29A G33A | 0.41
76 | U9C A14G A25C U34G A39U C45A | 0
77 | U9G G17A G36U | 0.04
78 | C3A G7U C46U | 0.4
79 | G2A C8A C15A U38C G40U | 0.08
80 | C3A G17U C18U U32C G33U U38G G44U | 0
81 | G1C A4U C8U | 0.03
82 | C3A A4C G19C A26G G29A G36C C46A | 0.1
83 | G2U C31G U38A C46A | 0
84 | A12U C31U G36U A39C | 0.04
85 | U28A G33U U38A A39G | 0.06
86 | G22C A25U A26G G44C | 0.1
87 | G5U A25G G44A | 0.17
88 | G1C A16G G19A A26U G36U G40A | 0.05
89 | U9A A16G G35C | 0.21
90 | G7U C10G G19C G29A C42U | 0
91 | A6G C15U A26U | 0.02
92 | G5U C13A G17A G40C C45A | 0.03
93 | C13G C18G U28A C42U G44A | 0.03
94 | A4U U38G C45U | 0.21
95 | G7A A11G G21A U38G | 0.01
96 | C3A G22U A24C | 1.39

Row | Variant | self-cleavage
97 | G1U G35U G44C | 0.06
98 | C23A U32A U34A | 0.04
99 | C18A G35U G36A | 0.06
100 | A12C C13A A14G | 0
101 | C18A C23G A41U | 0.07
102 | A26G C31U U32G C45G | 0.07
103 | G2U G5A A11G A12U | 0
104 | A4G A12G G22U C31G A39G | 0.02
105 | G27A C31G G33A | 0.1
106 | C8U C10G C18U G36A | 0.02
107 | C13A G27U C42A | 0.05
108 | G2U U28C C37A U38A C42G | 0.04
109 | A25C U38C G44C | 0.31
110 | G7U G27C U43C | 0.02
111 | G7U A11G C23U | 0.02
112 | C13A G27U U28C G29U U34A | 0.06
113 | A4G G5A C42A C45U | 0.01
114 | G19C U20A G21C | 0.4
115 | U20C U32C C42U | 0.08
116 | C8A A16G U38C | 0.04
117 | G1U C3G G5C C8U U43G C45A | 1.03
118 | A11G U32C C37U | 0
119 | G1C U9G A12C G30A | 0
120 | C31U G33A G44A | 0.02

Row | Variant | self-cleavage
121 | G5A G17A G36U U38G C42A | 0.01
122 | A24U U34A C46U | 0.02
123 | A6U C15A U34C | 0.06
124 | G1A A16G C42A | 0.04
125 | G7U C8U C10G G17U A26U G44U | 0.01
126 | G17A G27C U34G A41U | 0.05
127 | C8G C13A A14G C18A G30C G35U | 0.12
128 | C3A U9C C13G G19U | 0.03
129 | G5A C10A A11G A26U G40U | 0.02
130 | G36C A39U C42U | 0.12
131 | G5C G27U U32A | 0.06
132 | C3U C13A U28C | 0.04
133 | G2A C10A G22C | 0.06
134 | C8G C10G G17C C18U A25C U32C | 0.01
135 | C3G G17A G35A | 0.15
136 | A14G G33C G40U | 0.02
137 | C23G A26C G40U G44U C45G C46A | 0.04
138 | C3A U9G U34C | 0.19
139 | G2A C8G U9A C46A | 1.48
140 | U9A G21A G30U C31U A41G G44A | 0.03
141 | U9C U20A A26U A39U | 0
142 | C10A A16C U20A A41U | 0.03
143 | G5C U20A C45A | 0.38
144 | A14U C15U G22C | 0.03

Row | Variant | self-cleavage
145 | A25C G33A G35C U38A | 0.05
146 | A16G G30C G40A | 0.01
147 | C8A U9A C31A | 0.05
148 | A4C A26G G27C U32G C46A | 0.02
149 | A6G U28A G35A | 0.15
150 | C3U G5U G7C G33U | 0.02
151 | A6U C10A C13G G27A U32C | 0.02
152 | A14C G19C A24U | 0.04
153 | G7U U9C A11U G35U | 0.01
154 | G33U G35A C46A | 0.06
155 | G21U G22C A39G | 0.08
156 | G7C U20C U34A U43A | 0.01
157 | C8G U9C G19A U20C G36C G40C A41C C45U | 0
158 | G1C A4G U20C U32G C37A | 0.02
159 | U20A U32C U34G | 0.02
160 | A6G C8U A11C U20C G21U U38C | 0
161 | C3A A25C C31U U38A G44U | 0.33
162 | G2A G19U C23U G35C | 0.2
163 | G1A C18A G19A C45A | 0.08
164 | G5C G17C G36U | 0.07
165 | G7U C13A C18G U38C | 0.09
166 | G5U A16C G30U C42U | 0.01
167 | G2C A6G U20A A26U G36U C45G | 0.01
